Data published in PubChem BioAssay AID1476 (National Center for Advancing Translational Sciences (NCATS), 2009).
Where “and” joins values, the source holds several entries; their conditions need not be identical. Equal values may be shown once. Screen size: about 200,000 compounds; about 4,500 (2.2%) were called active. This list was built around the results that the source calls inconclusive (neither active nor inactive); the mix of calls is not that of the screen. Calls come from the whole dose curve; as a rule, active = well fitted inhibition curve with a large enough effect; inconclusive = small, poorly fitted or top-dose-only effect, or effect the other way; inactive = flat fitted curve, though single readings scatter. A potency beside an inconclusive call is a rough fit, not a confirmed value.

Target: Cruzipain (Trypanosoma cruzi) (UniProt P25779)
UniProt P25779, sequence (P25779 whole entry, looked up): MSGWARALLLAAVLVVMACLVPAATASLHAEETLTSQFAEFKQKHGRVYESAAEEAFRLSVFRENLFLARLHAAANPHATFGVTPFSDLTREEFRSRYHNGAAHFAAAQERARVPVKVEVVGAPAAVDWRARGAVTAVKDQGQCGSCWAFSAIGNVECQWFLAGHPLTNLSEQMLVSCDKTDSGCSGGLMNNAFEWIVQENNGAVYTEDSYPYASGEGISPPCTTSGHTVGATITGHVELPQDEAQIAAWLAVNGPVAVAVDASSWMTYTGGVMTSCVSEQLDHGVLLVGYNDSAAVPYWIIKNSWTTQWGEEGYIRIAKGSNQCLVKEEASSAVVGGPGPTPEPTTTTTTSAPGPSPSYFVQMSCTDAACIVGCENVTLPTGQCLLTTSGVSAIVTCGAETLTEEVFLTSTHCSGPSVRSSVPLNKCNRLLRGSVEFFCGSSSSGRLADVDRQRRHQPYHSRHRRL
Assay: qHTS Assay for Promiscuous and Specific Inhibitors of Cruzain (without detergent); note: nearly all actives have a fitted effect of over 40% in size;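 for max response, negative = inhibition: plate controls were enzyme without inhibitor for no effect and buffer without enzyme for full effect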
Settings: purified cruzain, Z-FR-AMC fluorescence, no detergent
Method in brief: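 Purified cruzain at 1.5 nM, pre-incubated 15 min with compound at room temperature in 100 mM sodium acetate pH 5.5, 5 mM DTT, 0.00005% Triton X-100. Reaction started with 2 uM Z-FR-AMC; AMC fluorescence increase over 60 s gives rate.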
Potency is the fitted concentration of half-maximal effect; tags give direction and shape of the fitted curve.

Row | SMILES | max response, negative = inhibition | Potency
1 | CCn1c(=O)c2sccc2n2c(CCCC(=O)N3CCN(c4ccc(F)cc4)CC3)nnc12 | inactive: 3.46% | –
2 | CCCCOc1ccc(C(=O)N(Cc2ccccc2)C2CCS(=O)(=O)C2)cc1 (stereo not given) | – | inconclusive: 25.1 µM [activator, single point]
3 | CCOC(=O)c1cccc(NC(=O)CCS(=O)(=O)c2ccc3c(c2)CCN3C(=O)CC)c1 | inactive: -5.45% | –
4 | COc1ccc(-c2csc(N3CCC(c4ccccc4)C3)n2)cc1 (stereo not given) | inactive: -6.13% | –
5 | CN(C)c1ccc(-n2cccc2/C=N/n2cnnc2)cc1 | inactive: -10.4% | –
6 | COc1ccc(N2CCN(Cc3nc4c(c(=O)[nH]c(=O)n4C)n3CCCc3ccccc3)CC2)cc1 | – | inconclusive: 39.8 µM [activator, single point]
7 | COc1cccc(NCc2ccc([N+](=O)[O-])s2)c1 | – | inconclusive: 39.8 µM [inhibitor, single point]
8 | Cc1cccc(C)c1NC(=O)c1cc(S(=O)(=O)N2CCc3ccccc3C2)ccc1F | – | inconclusive: 39.8 µM [inhibitor, single point]
9 | Cc1ccc(CNC(=O)c2sc3ccc(S(=O)(=O)N4CCCCC4)cc3c2N)cc1 | – | inconclusive: 39.8 µM [inhibitor, single point]
10 | O=[N+]([O-])c1ccc(N2CCNCC2)cc1NC1CC1 | inactive: 0.521% | –
11 | Cn1c(=O)c2c(ncn2CC(COCc2ccccc2Cl)OCc2ccccc2Cl)n(C)c1=O (stereo not given) | – | inconclusive: 31.6 µM [activator, single point]
12 | COc1cc(S(=O)(=O)N(Cc2ccc(C)cc2)Cc2ccco2)ccc1-n1cnnn1 | – | inconclusive: 25.1 µM [activator, single point]
13 | Cc1cc(C)c2c(c1)c(C)cc1nnc(SCC(=O)c3ccccc3)n12 | inactive: -13.3% | –
14 | CSc1nnc2n(-c3ccc(C)cc3)c(=O)c3c4c(sc3n12)COC(C(C)C)C4 (stereo not given) | – | inconclusive: 25.1 µM [activator, single point]
15 | CCCCOC(=O)c1c(C)oc2c1cc(NS(=O)(=O)c1cc(OC)ccc1OC)c1ccccc12 | – | active: 12.6 µM
16 | CCOc1ccc(-c2nnc(SCC(=O)Nc3cccc(C#N)c3)o2)cc1 | – | active: 25.1 µM
17 | Cc1ccc(NC(=O)COc2ccc(-n3cnnn3)cc2)cc1C | – | inconclusive: 31.6 µM [inhibitor, single point]
18 | O=C(Nc1sc2c(c1C(=O)NCC1CCCO1)CCCC2)c1cccs1 (stereo not given) | – | inconclusive: 39.8 µM [activator, single point]
19 | COc1ccccc1CNC(=O)CSc1ncc(S(=O)(=O)c2ccc(C)c(Cl)c2)c(=O)[nH]1 | – | inconclusive: 25.1 µM [activator, single point]
20 | COc1ccc(NC(=O)N2CCn3c2nc2ccccc23)cc1 | – | inconclusive: 39.8 µM [activator, single point]

Row | SMILES | max response, negative = inhibition | Potency
21 | COc1ccc(-c2nnc(SCC(=O)N3CCC(C)CC3)o2)cc1 | inactive: 0.412% | –
22 | CCOc1ccccc1C(=O)NCC(=O)OCC(=O)N1C(C)CCCC1C (stereo not given) | – | inconclusive: 39.8 µM [inhibitor, single point]
23 | COc1cc(-c2nc(SCC(=O)Nc3ccc4c(c3)OCO4)c(-c3ccccc3)[nH]2)cc(OC)c1OC | – | inconclusive: 39.8 µM [activator, single point]
24 | Clc1cnc(Oc2ccc(Oc3ncc(Cl)cc3Cl)cc2)c(Cl)c1 | – | inconclusive: 39.8 µM [inhibitor, single point]
25 | COc1ccc(CCN2C(=O)N(c3cccc(C)c3)C(=O)C2CC(=O)Nc2ccccc2)cc1OC (stereo not given) | – | inconclusive: 39.8 µM [activator, single point]
26 | Clc1ccc(CCNc2nc3cc(Cl)c(Cl)cc3n3cnnc23)cc1 | inactive: -7.55% | –
27 | Cc1cccc(CCNC(=O)c2cc(S(=O)(=O)N3CCCCC3)c[nH]2)c1 | inactive: -21.8% | –
28 | O=C(COc1ccc2ccccc2c1CN1CCOCC1)N1CCc2ccccc21 | – | inconclusive: 31.6 µM [inhibitor, single point]
29 | COc1ccc(CCNC(=O)CCCn2c(=O)c3ccccc3n(Cc3ccccc3)c2=O)cc1OC | – | inconclusive: 39.8 µM [activator, single point]
30 | C=CCOc1ccc(CNc2nccs2)cc1 | – | inconclusive: 39.8 µM [activator, single point]
31 | COc1ccc(S(=O)(=O)N2Cc3ccccc3CC2C(=O)Nc2ccc(C)cc2)cc1OC (stereo not given) | – | inconclusive: 39.8 µM [activator, single point]
32 | Cc1cccc(-n2c(SCc3ccc(C#N)cc3)nnc2-c2c[nH]c3ccccc23)c1 | – | inconclusive: 39.8 µM [inhibitor, single point]
33 | CCOC(=O)c1c(/N=C/c2c(O)n(-c3ccccc3F)c(=S)[nH]c2=O)sc2c1CCCC2 | – | active: 15.8 µM
34 | COc1ccc(-c2[nH]nc3nc(-c4cc(Br)ccc4OC)cc(C(=O)O)c23)cc1 | inactive: 29.7% | –
35 | COc1cccc(-c2cc(C(F)(F)F)nc(NCCc3ccc(OC)c(OC)c3)n2)c1 | – | inconclusive: 39.8 µM [activator, single point]
36 | COC(=O)[C@@]1(Cc2ccc(F)cc2)[C@H]2c3cc(C(=O)N(C)C)n(Cc4ccc(OC(F)(F)F)cc4)c3C[C@H]2CN1C(=O)c1ccccc1 | – | inconclusive: 20 µM [activator, partial curve] and inconclusive: 12.6 µM [activator, partial curve]
37 | CCCN(CCC)C(=O)Cn1c(=O)n(-c2cccc(C)c2)c(=O)c2c1c1cc(OC)ccc1n2C | – | inconclusive: 39.8 µM [activator, single point]
38 | CCCCOc1ccc(C(C)NC(=O)CN2C(=O)CSc3ccc(S(=O)(=O)N4CCOCC4)cc32)cc1 (stereo not given) | – | inconclusive: 39.8 µM [activator, single point]
39 | CS(=O)(=O)N1CCC2(CCCN(c3ccccn3)C2)CC1 | inactive: -5.81% | –
40 | Cc1noc(C)c1COc1cccc(C(=O)OCC(=O)NC(=O)c2ccc(OC(F)F)cc2)c1 | – | inconclusive: 31.6 µM [inhibitor, single point]
